# ± gives the standard deviation of the averaged measurements. Over roughly 33,000 sequences, “E-score (dimensionless, -0.5 to 0.5)” has its median near -0.049; the highest 2% begin near 0.37. Some of the results follow.
# Tested on: T1, PmTbr T-box DNA-binding domain (GST fusion)
# T1 sequence: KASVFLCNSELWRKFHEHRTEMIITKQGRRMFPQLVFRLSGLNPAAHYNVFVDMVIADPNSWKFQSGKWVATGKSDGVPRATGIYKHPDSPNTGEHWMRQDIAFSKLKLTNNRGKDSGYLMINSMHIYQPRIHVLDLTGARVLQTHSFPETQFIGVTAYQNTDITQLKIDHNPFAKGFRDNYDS
# Experiment: PBM E-score of 8-mer (E-score (dimensionless, -0.5 to 0.5)); Tbr is Tbrain of the sea star Patiria miniata (Pm) or the sea urchin Strongylocentrotus purpuratus (Sp); higher = stronger binding preference; most listed sequences are background and not binding sites
# Conditions: the construct has about 5 more residues each side
# Procedure, shortened: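 Each ungapped 8-mer received an enrichment E-score from the Universal PBM Analysis Suite, averaged over duplicate arrays. The proteins were Tbr T-box DNA-binding domains, covering the whole T-box plus about five flanking residues, fused to GST and expressed in BL21 E. coli at 20 °C before glutathione affinity purification. Universal Agilent oligonucleotide arrays were made double-stranded by primer extension and incubated with 200 nM protein in PBS (pH 7.5). The arrays were then scanned and quantified, and every 8-mer was scored from probe intensities.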
row,Sequence,PBM E-score of 8-mer
1,AATTACTG,-0.0968 ± 0.00041
2,ACCCCATC,-0.148 ± 0.095
3,ACAGTTGA,0.137 ± 0.036
4,CATGGACC,-0.238 ± 0.053
5,CCCATAAC,-0.0502 ± 0.043
6,AGTTTATA,0.0231 ± 0.036
7,ATGGCGTC,0.066 ± 0.016
8,CGAATTAA,0.0165 ± 0.093
9,AAACGTGC,0.232 ± 0.023
10,AGCTTCCG,-0.106 ± 0.013
11,CCATGTCG,0.177 ± 0.027
12,CCGGACCA,-0.2637 ± 0.00096
13,ACAAGCCC,-0.283 ± 0.056
14,ACTTGCGA,0.386 ± 0.006
15,AAGTATAT,-0.0983 ± 0.071
16,ATTGATCC,0.0355 ± 0.003
17,TAACGTTA,-0.118 ± 0.11
18,TCGCGCGA,0.3886 ± 0.0024
19,AGAACTAG,-0.0544 ± 0.026
20,CGAATACC,0.0788 ± 0.04
21,AGATCCAA,-0.13 ± 0.11
22,CAAGTGCG,0.389 ± 0.015
23,GGGTCGAA,0.0847 ± 0.033
24,CGCAGAAG,0.0263 ± 0.058
25,ATACCGGA,-0.128 ± 0.039

row,Sequence,PBM E-score of 8-mer
1,AGGCCGGG,-0.214 ± 0.037
2,AGATCTCC,-0.132 ± 0.071
3,CTATCGCA,0.295 ± 0.0089
4,GCCTTGTA,-0.0361 ± 0.051
5,ATGTGACA,0.4393 ± 0.0026
6,CGTAGGTA,-0.283 ± 0.011
7,CCCAATCA,-0.0355 ± 0.011
8,AAACTCAC,0.106 ± 0.012
9,ACGACTGC,-0.053 ± 0.071
10,GAGCCACA,0.129 ± 0.015
11,CGCCAAAG,0.161 ± 0.0029
12,ATAGATTG,-0.106 ± 0.034
13,CTGTGCTA,0.0225 ± 0.0027
14,CATGCCTA,-0.384 ± 0.024
15,CCCTCGCC,-0.00497 ± 0.0074
16,TTGCCAAA,0.11 ± 0.066
17,AACCCTGA,-0.108 ± 0.0053
18,TACAAACA,0.0912 ± 0.0067
19,CCGGCACC,0.306 ± 0.0099
20,CTTATGCC,-0.0845 ± 0.1
21,CACGCGCG,0.323 ± 0.012
22,ATCGATTG,-0.0412 ± 0.022
23,AACGCCAG,0.0237 ± 0.0043
24,GCAAGGGC,-0.184 ± 0.095
25,CATCCCGG,-0.28 ± 0.0046

row,Sequence,PBM E-score of 8-mer
1,ACCTGTAG,0.173 ± 0.054
2,ACAAGAAG,-0.105 ± 0.037
3,ATAAGAGG,-0.0944 ± 0.061
4,GTGGCAGA,0.00178 ± 0.0022
5,ATGTGCCG,0.0963 ± 0.036
6,GAACATGA,-0.108 ± 0.04
7,CCGCTTAC,-0.113 ± 0.077
8,CGAAATTA,0.116 ± 0.044
9,CTACCTGC,-0.0287 ± 0.065
10,CACGACCA,0.0508 ± 0.0062
11,ATCCGAGA,-0.146 ± 0.0062
12,AGGTATAG,-0.096 ± 0.03
13,CTGAACAC,0.125 ± 0.019
14,AGCCATCC,-0.151 ± 0.054
15,GCGTAGGA,-0.04 ± 0.069
16,CACAGCCA,-0.0334 ± 0.062
17,AGCTGGGA,-0.0311 ± 0.0099
18,GAGTACCC,0.0315 ± 0.01
19,CGCCCAGC,0.0496 ± 0.11
20,AGGCCGTC,-0.21 ± 0.012
21,ATATTAAG,-0.056 ± 0.14
22,GCAACGCC,0.189 ± 0.041
23,AAATGACC,-0.12 ± 0.015
24,AAAACTTT,-0.0193 ± 0.06
25,AACGGCCA,0.0414 ± 0.0074

row,Sequence,PBM E-score of 8-mer
1,CACTGGTC,-0.173 ± 0.027
2,GCGTCAAA,0.343 ± 0.018
3,CGGTTACC,-0.127 ± 0.0093
4,ACACGCGT,0.2 ± 0.036
5,AGTTGCTC,0.0211 ± 0.015
6,CGAAACGC,-0.00295 ± 0.014
7,GAATGCCA,-0.0279 ± 0.024
8,AGTAGCGG,-0.0625 ± 0.095
9,ATCCTTTC,-0.2369 ± 0.0022
10,GGCCTAAA,-0.147 ± 0.016
11,ACAGACAG,-0.0428 ± 0.02
12,ACCAGTGG,-0.165 ± 0.035
13,ACTGTCGA,0.191 ± 0.01
14,GACGTCGA,-0.098 ± 0.0024
15,GGCGGGGA,-0.0683 ± 0.085
16,CCGATCTA,-0.185 ± 0.016
17,ACAGTGGT,-0.0119 ± 0.05
18,CAAGCTTC,-0.2619 ± 0.0003
19,ACGGAACA,-0.0669 ± 0.063
20,ACCGGCTG,-0.307 ± 0.019
21,CTTACTGC,-0.049 ± 0.048
22,GTTATCAA,0.131 ± 0.076
23,ACCGCGAA,0.259 ± 0.018
24,GCGACGTA,-0.155 ± 0.04
25,CATACCCC,-0.18 ± 0.035

row,Sequence,PBM E-score of 8-mer
1,CCAATAAC,0.0548 ± 0.014
2,GGTCATAC,-0.0716 ± 0.021
3,GCCCCTCA,-0.00751 ± 0.012
4,AACGTGAA,0.11 ± 0.053
5,ATCAGCGA,0.146 ± 0.047
6,CTTATGGA,-0.165 ± 0.063
7,ATCGATCG,1e-05 ± 0.034
8,ATGATGGA,-0.173 ± 0.0018
9,AATAGCTC,-0.124 ± 0.02
10,CGACACGC,0.184 ± 0.034
11,CAGGCTGG,-0.0965 ± 0.095
12,CTAATCCC,-0.23 ± 0.019
13,AAGCACAC,0.201 ± 0.0026
14,CTATCGGA,-0.152 ± 0.04
15,ATCCCGGC,-0.3 ± 0.057
16,AAAGCGCG,0.314 ± 0.016
17,AAGTCTGC,0.0421 ± 0.0067
18,CTAGACCC,-0.0979 ± 0.07
19,TGTTTCAA,-0.0292 ± 0.082
20,ATTTCCGA,-0.0615 ± 0.018
21,GCAATATA,0.0293 ± 0.12
22,AACAAAGA,0.0244 ± 0.041
23,AAACAGCA,0.0668 ± 0.026
24,CTGTGCGA,0.236 ± 0.011
25,CTGGAGTA,-0.0592 ± 0.074

row,Sequence,PBM E-score of 8-mer
1,CGTGAGTC,0.0932 ± 0.04
2,GCTACGGA,-0.174 ± 0.0021
3,CAACACGC,0.229 ± 0.019
4,CGCCCATC,-0.00351 ± 0.13
5,AGACTTCG,-0.0953 ± 0.026
6,ACCCCCAA,0.00527 ± 0.078
7,ACGCCTAA,0.235 ± 0.025
8,AAACCTCC,-0.217 ± 0.093
9,AGTTCTGC,-0.332 ± 0.0036
10,ACTAATAA,-0.0146 ± 0.0047
11,CGCGTACG,0.102 ± 0.016
12,ACTCCGAT,-0.0934 ± 0.086
13,ATGGGCTC,-0.154 ± 0.16
14,CGATCTAG,0.025 ± 0.0082
15,AGACCTTG,-0.174 ± 0.013
16,CTGCGCCA,0.0685 ± 0.04
17,AACTTCGC,0.108 ± 0.035
18,TGTCCGAA,-0.175 ± 0.07
19,AGGTTGAG,-0.123 ± 0.083
20,ATAATGAC,-0.037 ± 0.054
21,AACCTCTA,-0.151 ± 0.025
22,CTGTTTTC,0.0165 ± 0.019
23,ACAGGAGC,0.052 ± 0.02
24,CCAGCAGG,-0.133 ± 0.045
25,GTGCGGTA,0.0887 ± 0.027

row,Sequence,PBM E-score of 8-mer
1,AGCTCAAT,-0.213 ± 0.0047
2,AGTAGAGC,0.00365 ± 0.047
3,CTTACTCA,-0.0983 ± 0.016
4,AACTGGAG,-0.0661 ± 0.0033
5,ATAGAAAC,-0.231 ± 0.036
6,AACGTATC,-0.171 ± 0.048
7,CCGGTACC,-0.167 ± 0.048
8,AGGTCTGC,-0.287 ± 0.043
9,GTAACGGA,-0.104 ± 0.099
10,AAGAGCTT,-0.317 ± 0.067
11,GTAAGGAC,-0.177 ± 0.096
12,ACAGGACG,0.0722 ± 0.034
13,GTTTAAAC,-0.152 ± 0.0054
14,AATACTAC,-0.191 ± 0.04
15,ACGCTATC,0.139 ± 0.017
16,AGTAGACG,0.0448 ± 0.06
17,GAAGTGTA,0.293 ± 0.028
18,CCTCCGTC,-0.0799 ± 0.048
19,GCGTGCCA,0.163 ± 0.015
20,ATACTATC,-0.157 ± 0.018
21,GATTCCAA,0.0116 ± 0.028
22,CCCAGGAC,-0.0782 ± 0.0074

# Reference: the supplement of paper PMC4166925
